Positions count from the first letter of the chain named.
B1: TY22596 (antibody, human IgG4 S228P, kappa)
heavy: EVQLVESGGGLVQPGGSLRLSCAASGFSLSTGGVGVGWIRQAPGKGLEWLALIDWADDKYYSPSLKSRLTISRDNSKNTLYLQLNSLRAEDTAVYYCARGGSDTVIGDWFAYWGQGTLVTVSSASTKGPSVFPLAPCSRSTSESTAALGCLVKDYFPEPVTVSWNSGALTSGVHTFPAVLQSSGLYSLSSVVTVPSSSLGTKTYTCNVDHKPSNTKVDKRV[in this place human IgG4 Fc with S228P (EU numbers)]
light: EVGSYYHDYDDCRVLPRRCFNSGRSAGGGGTPLGLAGSGGSDIQLTQSPSSLSASVGDRVTITCRASQSIGSYLAWYQQKPGKAPKLLIYDASNLETGVPSRFSGSGSGTDFTLTISSLQPEDFATYYCQQGYYLWTFGQGTKVEIKRTVAAPSVFIFPPSDEQLKSGTASVVCLLNNFYPREAKVQWKVDNALQSGNSQESVTEQDSKDSTYSLSSTLTLSKADYEKHKVYACEVTHQGLSSPVTKSFNRGEC
notes: Masked, uncleaved; hIgG4
B2: TY22586 (antibody, human IgG4 S228P, kappa)
heavy: B1 heavy
light: EVGSYPTDLDACADAPNHCHFSGRSAGGGGTPLGLAGSGGSDIQLTQSPSSLSASVGDRVTITCRASQSIGSYLAWYQQKPGKAPKLLIYDASNLETGVPSRFSGSGSGTDFTLTISSLQPEDFATYYCQQGYYLWTFGQGTKVEIKRTVAAPSVFIFPPSDEQLKSGTASVVCLLNNFYPREAKVQWKVDNALQSGNSQESVTEQDSKDSTYSLSSTLTLSKADYEKHKVYACEVTHQGLSSPVTKSFNRGEC
notes: Masked, uncleaved; hIgG4
B3: TY22594 (antibody, human IgG4 S228P, kappa)
heavy: B1 heavy
light: B1 light with Y6D, H7T, D11F, R13P, V14I, P16R, R17H, F20D, N21S
notes: Masked, uncleaved; hIgG4
B4: TY22595 (antibody, human IgG4 S228P, kappa)
heavy: B1 heavy
light: EVGSYNDYNYHCKWRPSRCHNSGRSAGGGGTPLGLAGSGGSDIQLTQSPSSLSASVGDRVTITCRASQSIGSYLAWYQQKPGKAPKLLIYDASNLETGVPSRFSGSGSGTDFTLTISSLQPEDFATYYCQQGYYLWTFGQGTKVEIKRTVAAPSVFIFPPSDEQLKSGTASVVCLLNNFYPREAKVQWKVDNALQSGNSQESVTEQDSKDSTYSLSSTLTLSKADYEKHKVYACEVTHQGLSSPVTKSFNRGEC
notes: Masked, uncleaved; hIgG4
B5: TY23572 (antibody, human IgG1, kappa)
heavy: EVQLVESGGGLVQPGGSLRLSCAASGFSLSTGGVGVGWIRQAPGKGLEWLALIDWADDKYYSPSLKSRLTISRDNSKNTLYLQLNSLRAEDTAVYYCARGGSDTVIGDWFAYWGQGTLVTVSS[in this place human IgG1 constant region]
light: EVGSYNDYNYHCKWRPSRCHNPLGLAGSGGSDIQLTQSPSSLSASVGDRVTITCRASQSIGSYLAWYQQKPGKAPKLLIYDASNLETGVPSRFSGSGSGTDFTLTISSLQPEDFATYYCQQGYYLWTFGQGTKVEIKRTVAAPSVFIFPPSDEQLKSGTASVVCLLNNFYPREAKVQWKVDNALQSGNSQESVTEQDSKDSTYSLSSTLTLSKADYEKHKVYACEVTHQGLSSPVTKSFNRGEC
notes: Masked, uncleaved; hIgG1
B6: TY23571 (antibody, human IgG1, kappa)
heavy: B5 heavy
light: EVGSYDTDYDFCPILRHRCDSPLGLAGSGGSDIQLTQSPSSLSASVGDRVTITCRASQSIGSYLAWYQQKPGKAPKLLIYDASNLETGVPSRFSGSGSGTDFTLTISSLQPEDFATYYCQQGYYLWTFGQGTKVEIKRTVAAPSVFIFPPSDEQLKSGTASVVCLLNNFYPREAKVQWKVDNALQSGNSQESVTEQDSKDSTYSLSSTLTLSKADYEKHKVYACEVTHQGLSSPVTKSFNRGEC
notes: Masked, uncleaved; hIgG1
B7: TY22598 (antibody, human IgG4 S228P, kappa)
heavy: B1 heavy
light: EVGSYSNNFASCLWRHRSCADSGRSAGGGGTPLGLAGSGGSDIQLTQSPSSLSASVGDRVTITCRASQSIGSYLAWYQQKPGKAPKLLIYDASNLETGVPSRFSGSGSGTDFTLTISSLQPEDFATYYCQQGYYLWTFGQGTKVEIKRTVAAPSVFIFPPSDEQLKSGTASVVCLLNNFYPREAKVQWKVDNALQSGNSQESVTEQDSKDSTYSLSSTLTLSKADYEKHKVYACEVTHQGLSSPVTKSFNRGEC
notes: Masked, uncleaved; hIgG4
B8: TY23565 (antibody, human IgG4 S228P, kappa)
heavy: B1 heavy
light: B6 light
notes: Masked, uncleaved; hIgG4
B9: TY23567 (antibody, human IgG4 S228P, kappa)
heavy: B1 heavy
light: B6 light with D6T, T7D, D8N, F11Y, I14R, H17R, R18K, D20Y, S21H
notes: Masked, uncleaved; hIgG4
B10: TY23566 (antibody, human IgG4 S228P, kappa)
heavy: B1 heavy
light: B5 light
notes: Masked, uncleaved; hIgG4
B11: TY23568 (antibody, human IgG1, kappa)
heavy: B5 heavy
light: B1 light with Y6D, H7T, D11F, R13P, V14I, P16R, R17H, F20D, N21S
notes: Masked, uncleaved; hIgG1
B12: TY23570 (antibody, human IgG1, kappa)
heavy: B5 heavy
light: B1 light with Y6T, H7D, D8N, D11Y, R13P, V14R, P16R, R18K, F20Y, N21H
notes: Masked, uncleaved; hIgG1
B13: TY23569 (antibody, human IgG1, kappa)
heavy: B5 heavy
light: B4 light
notes: Masked, uncleaved; hIgG1
B14: TY22591 (antibody, human IgG4 S228P, kappa)
heavy: B1 heavy
light: EVGSYSSTHAHCHHSPANCISSGRSAGGGGTPLGLAGSGGSDIQLTQSPSSLSASVGDRVTITCRASQSIGSYLAWYQQKPGKAPKLLIYDASNLETGVPSRFSGSGSGTDFTLTISSLQPEDFATYYCQQGYYLWTFGQGTKVEIKRTVAAPSVFIFPPSDEQLKSGTASVVCLLNNFYPREAKVQWKVDNALQSGNSQESVTEQDSKDSTYSLSSTLTLSKADYEKHKVYACEVTHQGLSSPVTKSFNRGEC
notes: Masked, uncleaved; hIgG4
B15: TY25153 (antibody, human IgG4 S228P, kappa)
heavy: B1 heavy
light: EVGSYPTDLDACADAPNHCHFGGGPLGLAGGSDIQLTQSPSSLSASVGDRVTITCRASQSIGSYLAWYQQKPGKAPKLLIYDASNLETGVPSRFSGSGSGTDFTLTISSLQPEDFATYYCQQGYYLWTFGQGTKVEIKRTVAAPSVFIFPPSDEQLKSGTASVVCLLNNFYPREAKVQWKVDNALQSGNSQESVTEQDSKDSTYSLSSTLTLSKADYEKHKVYACEVTHQGLSSPVTKSFNRGEC
notes: Masked, uncleaved; hIgG4
B16: TY25154 (antibody, human IgG4 S228P, kappa)
heavy: B1 heavy
light: EVGSYPTDLDACADAPNHCHFSGGGPLGLAGGSDIQLTQSPSSLSASVGDRVTITCRASQSIGSYLAWYQQKPGKAPKLLIYDASNLETGVPSRFSGSGSGTDFTLTISSLQPEDFATYYCQQGYYLWTFGQGTKVEIKRTVAAPSVFIFPPSDEQLKSGTASVVCLLNNFYPREAKVQWKVDNALQSGNSQESVTEQDSKDSTYSLSSTLTLSKADYEKHKVYACEVTHQGLSSPVTKSFNRGEC
notes: Masked, uncleaved; hIgG4

Legend:
[1] = target: T1, full-length human CD137 with C-terminal 3xMyc tag displayed on yeast cells (human, UniProt Q07011 24-255); experiment: KD divided by KD of parental TY21242; FACS on yeast hCD137; data batch 1
T1 construct: whole, on cells; not used; also called hCD137; not shown: C-terminal 3xMyc tag
T1 sequence (Q07011 24-255): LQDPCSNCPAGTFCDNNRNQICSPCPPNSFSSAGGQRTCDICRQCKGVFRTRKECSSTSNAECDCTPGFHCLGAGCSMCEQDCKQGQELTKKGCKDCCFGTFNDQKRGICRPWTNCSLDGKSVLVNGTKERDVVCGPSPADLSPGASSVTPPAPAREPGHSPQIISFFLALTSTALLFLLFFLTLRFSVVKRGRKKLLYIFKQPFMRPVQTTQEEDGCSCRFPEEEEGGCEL

[2] = target: T1, full-length human CD137 with C-terminal …; experiment: FACS titration on yeast displaying full-length hCD137-3xMyc, no protease; data batch 1
[3] = target: T1, full-length human CD137 with C-terminal …; experiment: KD divided by KD of parental TY21242; FACS on yeast hCD137; data batch 3
[4] = target: T1, full-length human CD137 with C-terminal …; experiment: FACS titration on yeast displaying full-length hCD137-3xMyc, no protease; data batch 3
[5] = target: T1, full-length human CD137 with C-terminal …; experiment: KD divided by KD of parental TY21242; FACS on yeast hCD137; data batch 2
[6] = target: T1, full-length human CD137 with C-terminal …; experiment: FACS titration on yeast displaying full-length hCD137-3xMyc, no protease; data batch 2

Binder | Masking efficiency [1] [fold] | Kd [2] [nM] | Masking efficiency [3] [fold] | Kd [4] [nM] | Masking efficiency [5] [fold] | Kd [6] [nM]
B1 | 21 | 5.86 | – | – | – | –
B2 | – | – | 361 | 128 | – | –
B3 | 84 | 23.6 | – | – | – | –
B4 | 379 | 107 | – | – | 141 | 41.2
B5 | – | – | – | – | 291 | 84.9
B6 | – | – | – | – | 81 | 23.7
B7 | 31 | 8.61 | – | – | – | –
B8 | – | – | – | – | 120 | 35
B9 | – | – | – | – | 898 | 262
B10 | – | – | – | – | 220 | 64.3
B11 | – | – | – | – | 37 | 10.7
B12 | – | – | – | – | 243 | 70.8
B13 | – | – | – | – | 211 | 61.6
B14 | 38 | 10.8 | – | – | – | –
B15 | – | – | 60 | 21.4 | – | –
B16 | – | – | 62 | 22.2 | – | –

From patent US20250188179A1 (ADAGENE PTE, published 2025)
